Some of the results follow.
System: HepG2
Assay: cytotoxicity call (relative viability < 0.9)
Conditions: 10 µM

Compound | cytotoxicity call
C[C@H]1CN([C@@H](C)CO)C(=O)c2cc(NC(=O)CCCCCC(=O)Nc3ccccc3N)ccc2O[C@@H]1CN(C)S(C)(=O)=O | inactive
C[C@H](CO)N1C[C@H](C)[C@H](CN(C)Cc2ccc(Cl)c(Cl)c2)Oc2ccc(NC(=O)C3CCCCC3)cc2CC1=O | inactive
CCS(=O)(=O)NCC[C@H]1CC[C@H](NS(=O)(=O)c2cccc(F)c2)[C@@H](CO)O1 | inactive
COc1ccc(S(=O)(=O)N(C)C[C@@H]2Oc3ccc(NC(=O)Cc4ccccc4)cc3CC(=O)N([C@@H](C)CO)C[C@@H]2C)cc1 | inactive
C[C@@H]1CN([C@@H](C)CO)C(=O)c2cccc(NS(=O)(=O)c3ccccc3)c2O[C@@H]1CN(C)S(=O)(=O)c1ccc(F)cc1 | inactive
CCOC(=O)c1c(CN2CCN(CCOCCO)CC2)n(-c2ccccc2)c2cc(Br)c(O)cc12 | active
Cc1noc(C)c1S(=O)(=O)Nc1ccc2c(c1)C(=O)N([C@@H](C)CO)C[C@H](C)[C@@H](CN(C)C(=O)Nc1ccc(C(F)(F)F)cc1)OCCCC[C@H](C)O2 | active
CN1C(=O)c2cc(NS(C)(=O)=O)ccc2OC[C@@H]2O[C@H](CC(=O)N3CCOCC3)CC[C@@H]21 | inactive
C[C@H](CO)N1C[C@H](C)[C@@H](CN(C)Cc2cccc3c2OCCCO3)OCc2ccccc2-c2ccccc2C1=O | inactive
C[C@@H]1CN([C@H](C)CO)C(=O)c2cc(NC(=O)Nc3ccc(C(F)(F)F)cc3)ccc2O[C@@H](C)CCCCO[C@H]1CN(C)C(=O)NC1CCCCC1 | inactive
C[C@H](CO)N1C[C@H](C)[C@@H](CN(C)C(=O)NC2CCCCC2)Oc2ccc(NC(=O)Cn3cnnn3)cc2CC1=O | inactive
C[C@@H]1CN([C@@H](C)CO)S(=O)(=O)c2ccc(-c3cncnc3)cc2O[C@H]1CN(C)C(=O)C1CCCCC1 | inactive
COc1ccc(S(=O)(=O)Nc2ccc3c(c2)C(=O)N([C@@H](C)CO)C[C@H](C)[C@@H](CN(C)CC2CCCCC2)OCCCC[C@H](C)O3)cc1 | inactive
CNC[C@H]1Oc2ccc(NC(=O)CCN3CCOCC3)cc2CC(=O)N([C@H](C)CO)C[C@H]1C | inactive
Cc1noc(C)c1S(=O)(=O)N(C)C[C@H]1OCCCC[C@H](C)Oc2ccc(NS(=O)(=O)c3cn(C)cn3)cc2C(=O)N([C@@H](C)CO)C[C@@H]1C | inactive
Cc1nc2c(=O)n(C)c(=O)n(C)c2nc1Cl | active
CO[C@H]1CN(C)C(=O)c2ccc(NC(=O)Nc3ccccc3)cc2OC[C@H](C)N(C(=O)CN(C)C)C[C@H]1C | inactive
CCCN1C[C@H](C)[C@H](OC)CN(C)C(=O)c2ccc(NS(=O)(=O)c3cn(C)cn3)cc2OC[C@@H]1C | inactive
COc1ccc(NC(=O)Nc2ccc3c(c2)C(=O)N([C@@H](C)CO)C[C@H](C)[C@H](CN(C)Cc2ccc(C(=O)O)cc2)OCCCC[C@@H](C)O3)cc1 | inactive
O=C(C[C@H]1CC[C@H]2[C@@H](COC[C@H](O)CN2S(=O)(=O)c2cccc(Cl)c2)O1)NCc1ccncn1 | inactive

Compound | cytotoxicity call
C[C@@H]1CN([C@H](C)CO)C(=O)Cc2cc(NC(=O)C3CC3)ccc2O[C@H]1CN(C)C(=O)NC1CCCCC1 | inactive
CC(C)NC(=O)Nc1ccc2c(c1)C(=O)N([C@@H](C)CO)C[C@@H](C)[C@@H](CN(C)C(=O)Nc1ccc(C(F)(F)F)cc1)OCCCC[C@@H](C)O2 | inactive
Cc1ccc(S(=O)(=O)N(C)C[C@@H]2Oc3c(NC(=O)NC(C)C)cccc3C(=O)N([C@H](C)CO)C[C@H]2C)cc1 | inactive
C[C@@H]1CCCCO[C@H](CN(C)Cc2ccccc2)[C@H](C)CN([C@H](C)CO)C(=O)c2cc(NS(=O)(=O)c3cccs3)ccc2O1 | inactive
CC(C)NC(=O)N(C)C[C@H]1Oc2c(NC(=O)C3CCCCC3)cccc2C(=O)N([C@H](C)CO)C[C@H]1C | inactive
COc1ccc2c3c(n(c2c1)C)[C@@H](CO)N(C[C@]13CCN(CC1)C(=O)CN(C)C)C(=O)C1CCCCC1 | inactive
C[C@@H]1CCCCO[C@H](CN(C)C(=O)Nc2ccc3c(c2)OCO3)[C@@H](C)CN([C@@H](C)CO)C(=O)c2cc(NC(=O)CCC(F)(F)F)ccc2O1 | inactive
CCN(CC)C(=O)c1cccc(C)c1 | inactive
COCC(=O)NC1CCN(C2CCNCC2)CC1 | inactive
COCCOC(=O)N1C(=O)[C@@]2(c3cc(C#CCCO)ccc31)[C@H](c1ccc(O)cc1)N1[C@H](c3ccccc3)[C@H](c3ccccc3)OC(=O)[C@H]1[C@@H]2C(=O)N1CCc2cc(OC)c(OC)cc2C1 | inactive
O=C(NCCCN1CCCC1=O)c1cccnc1 | inactive
COc1ccc(NC(=O)N(C)C[C@@H]2OCCCC[C@H](C)Oc3ccc(NS(=O)(=O)c4ccc(F)cc4)cc3C(=O)N([C@H](C)CO)C[C@@H]2C)cc1 | inactive
COc1ccc(-c2cc(=O)c3c(OC)c(OC)c(OC)c(OC)c3o2)cc1 | inactive
C[C@H](CO)N1C[C@H](C)[C@H](CN(C)Cc2ccccc2)OCCCC[C@H](C)Oc2ccc(NC(=O)Nc3ccc4c(c3)OCO4)cc2C1=O | inactive
C[C@H](CO)N1C[C@H](C)[C@H](CN(C)C)Oc2ccc(NS(C)(=O)=O)cc2CC1=O | inactive
C[C@H]1CCCCO[C@@H](CN(C)S(=O)(=O)c2cccs2)[C@@H](C)CN([C@@H](C)CO)C(=O)c2cc(NC(=O)Nc3ccc4c(c3)OCO4)ccc2O1 | inactive
S=c1cc(-c2ccccc2)oc(-c2ccccc2)c1 | active
COCC(=O)Nc1ccc2c(c1)C(=O)N(C)C[C@@H](OC)[C@@H](C)CN(Cc1ccccc1F)[C@H](C)CO2 | inactive
O=C(C[C@H]1C[C@H]2c3cc(NC(=O)Nc4ccc(C(F)(F)F)cc4)ccc3O[C@H]2[C@H](CO)O1)NC1CCCCC1 | inactive

Reference: the antibiotic and cytotoxicity screens of Wong et al. (2023)
